# Data published in paper PMC6919601, “Identification of Plasmodium dipeptidyl aminopeptidase allosteric inhibitors by high throughput screening” (PLoS ONE, 2019).
# Several values for one entry are separate records, joined by “and”; a condition that tells them apart may be missing. Equal values may be shown once. Out of some 110,000 compounds screened, about 230 (0.21%) showed an effect of 50% or more. This is one part of the list.
# Target: DPAP1 (Plasmodium falciparum, UniProt Q8IIJ9)
# Assay: primary screen, percent inhibition; read by cleavage of a fluorogenic dipeptide substrate; higher = more effect of the substance
# Parameters: species or system P. falciparum D10 trophozoite lysates; single well
# 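Also: 30 min substrate incubation versus DMSO and 10 µM JCP410 controls.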
# DPAP1, sequence (Q8IIJ9 whole entry, looked up): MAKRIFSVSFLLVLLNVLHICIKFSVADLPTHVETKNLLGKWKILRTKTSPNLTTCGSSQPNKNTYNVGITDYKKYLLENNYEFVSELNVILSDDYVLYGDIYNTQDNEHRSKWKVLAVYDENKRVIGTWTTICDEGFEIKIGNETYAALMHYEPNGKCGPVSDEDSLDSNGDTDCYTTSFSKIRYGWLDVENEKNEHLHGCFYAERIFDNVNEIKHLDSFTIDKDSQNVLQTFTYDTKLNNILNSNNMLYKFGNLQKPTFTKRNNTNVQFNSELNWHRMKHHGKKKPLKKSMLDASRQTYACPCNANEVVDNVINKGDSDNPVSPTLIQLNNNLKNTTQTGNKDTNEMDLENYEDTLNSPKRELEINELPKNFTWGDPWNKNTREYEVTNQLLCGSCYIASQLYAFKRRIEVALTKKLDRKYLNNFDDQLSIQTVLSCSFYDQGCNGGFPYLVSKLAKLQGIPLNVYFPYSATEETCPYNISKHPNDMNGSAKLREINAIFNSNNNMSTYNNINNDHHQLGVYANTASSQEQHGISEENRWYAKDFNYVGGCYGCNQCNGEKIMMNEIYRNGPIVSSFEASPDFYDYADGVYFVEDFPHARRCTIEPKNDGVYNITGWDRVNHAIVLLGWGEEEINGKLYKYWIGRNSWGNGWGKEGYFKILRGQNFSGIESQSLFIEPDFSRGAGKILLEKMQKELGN
row,SMILES,% Inhibition @ 10 uM
1,COc1ccc(N(CC(=O)NC2CCCCC2)S(C)(=O)=O)cc1Cl,-5.26% and -5.07%
2,CCSC1=C(C#N)C(c2ccccc2Cl)CC(=O)N1 (stereo not shown),0.962%
3,Cc1ccc(NC(=O)c2cc(F)c(F)cc2Cl)nc1,-5.36%
4,COc1ccc(CCNC(=O)Cn2nnc3sc(-c4ccccc4)cc3c2=O)cc1OC,6.85%
5,CCN(CC)c1ccc(C2Nc3ccc4ccccc4c3C3=C2C(=O)CC(C)(C)C3)cc1 (stereo not shown),-4.26%
6,CC(C)OC1=C(OC(C)C)C(C2(c3ccccc3O)SCCCS2)C1=O (stereo not shown),-3.04%
7,O=C(CCNc1c(N2CCCC2)c(=O)c1=O)NC1CCCCC1,3.3%
8,Cc1ccc(C2CC(C(F)(F)F)n3ncc(C(N)=O)c3N2)cc1 (stereo not shown),5.73%
9,CCC(C)OC(=O)C1=C(C)NC(=O)CC1c1ccccc1C(F)(F)F (stereo not shown),-3.51%
10,c1coc(CNC2CCCCCCC2)c1,-3.6%
11,CCN1CCN(C(C)CCc2ccccc2)CC1 (stereo not shown),-2.34%
12,Cc1cc(=O)n2nc(N3CCC(C(=O)NC4CCN(Cc5ccccc5)CC4)CC3)sc2n1,-0.281%
13,CC(C)c1nc(N2CCN(C(=O)c3ccccc3)CC2)c(C#N)c2c1COC(C)(C)C2,-0.884%
14,C(=C\c1ccccc1)/CN1CCN(C/C=C/c2ccccc2)CC1,2.91%
15,O=C(Nc1cccnc1)c1cc(-c2ccc(Br)cc2)nc2ccccc12,-3.02%
16,COc1cccc(OCC(O)CN2CCN(c3ccc(F)cc3)CC2)c1 (stereo not shown),-0.795%
17,CCCCCCn1c(=O)c(C(=O)Nc2ncc(C)s2)c(O)c2ccccc21,-1.64%
18,CCNCC(O)CN1CCC(C)CC1 (stereo not shown),0.878%
19,CCN1CCN(Cc2ccccc2Cl)CC1,3%
20,Cc1ccc(Cn2c3ccccc3c3cnnc(O)c32)cc1,-0.0309%
21,CC12CCC3(C=C1CCCC21SCCS1)SCCS3 (stereo not shown),-1.37%
22,CCN1CCC(NCCC(c2ccccc2)c2ccccc2)CC1,-1.15%
23,COc1ccc(-c2nc3s/c(=C\c4ccc(OCC(N)=O)cc4)c(=O)n3n2)cc1OC,6.96%
24,N#CCNC(=O)[C@H](CSCc1ccncc1)NC(=O)c1ccccc1,-3.49%
25,Cc1oc2c(c1C(=O)NC1CCS(=O)(=O)C1)C(=O)c1ccccc1C2=O (stereo not shown),-3.53%
26,O=C(Nc1cccnc1Cl)C1c2ccccc2Oc2ccccc21,-3.33%

row,SMILES,% Inhibition @ 10 uM
1,CCOC(=O)/C(=C\c1ccccc1)NC(=O)c1ccccc1,-3.58%
2,O=C(/C=C/c1ccco1)NCC1(c2ccccc2)CCOCC1,0.685%
3,Cc1cc(/C=C2\NC(=O)NC2=O)c(C)n1-c1cccc(Cl)c1,2.38%
4,Cc1ccc(OCC(=O)N2CCN(C3=NS(=O)(=O)c4ccccc43)CC2)cc1,2.05%
5,CCc1c(C)sc(NC(=O)c2cccnc2Cl)c1C#N,5.58%
6,Nc1nc(-c2cccnc2)nn1C(=O)Cc1ccccc1,3.93%
7,CCCN1CCC(N2CCN(C(=O)OCC)CC2)CC1,-3.6%
8,COc1ccc(NC(=O)C(N)=O)cc1,-0.414%
9,COc1cccc(CN2CCN(Cc3ccccc3C)CC2)c1,-0.822%
10,CC(C)c1ccc(C2C(C#N)=C(N)OC3=C2C(=O)CC(C)(C)C3)cc1 (stereo not shown),1.41%
11,CC(=O)N1CCC(NCCc2c[nH]c3ccccc23)CC1,-2.02%
12,COc1ccc(/N=C2/S/C(=C\c3cc(Br)ccc3OCC#N)C(=O)N2C)cc1,7.16%
13,O=C(Nc1ccccc1)c1ccccc1NC(=O)C1CCCCC1,3.49%
14,CN1C(=O)C(=Cc2cccn2-c2ccc([N+](=O)[O-])cc2)C(=O)N(C)C1=O,4.5%
15,Cc1ccnc(NC(=O)C2CCCCC2C(=O)O)c1 (stereo not shown),-2.9%
16,COc1ccc2c(CNCc3ccc(C)o3)c(C(=O)O)n(Cc3cccc(F)c3)c2c1,4.63%
17,Cc1cc2oc(=O)c(CC(=O)O)c(C)c2c2occ(-c3ccc(Cl)cc3)c12,0.558%
18,O=S(=O)(NCCN1CCCCCC1)c1ccc2nc(O)ccc2c1,0.807%
19,Cc1cccc(NC(=O)C(c2ccccc2)N2Cc3ccccc3C2=O)n1 (stereo not shown),-1.59%
20,Cc1ccc(-n2nc(C)c3c(C)cc(=O)oc32)cc1,-6.08%
21,COc1ccc2[nH]c3c(=O)n(CCCC(=O)N4CC=C(c5ccccc5)CC4)c(=S)[nH]c3c2c1,-2.19%
22,O=C(O)CCCn1cc(NC(=O)c2ccc3c(c2)OCO3)cn1,-0.403%
23,CC(=O)c1cccc(NC(=O)Cn2c(-c3nonc3N)nc3ccccc32)c1,1.62%
24,Cc1nc2ccc(NC(=S)NC3CC3)cc2nc1C,2.16%
25,C=CC[n+]1c(C=C2C=CN(C)C=C2)sc2ccccc21,-6.71%
26,Cn1c(=O)c(C(=O)Nc2nc(C3C4CC5CC(C4)CC3C5)cs2)c(O)c2ccccc21 (stereo not shown),-16.1%

row,SMILES,% Inhibition @ 10 uM
1,Cc1ccccc1OCc1nnc2c3cnn(C)c3ncn12,-3.96%
2,COc1ccc(CN2CCN(C(=O)c3cccnc3S)CC2)c(OC)c1OC,21.2%
3,CCOC(=O)c1c(NC(=O)COc2cccc(C(F)(F)F)c2)sc(C)c1C,5.41%
4,CCOC(=O)c1cc2c(s1)-c1ccccc1S(=O)(=O)C2,1.91%
5,O=C1OCC/C1=C\c1ccccc1O,-0.0369%
6,O=C(NCCn1ccc2ccccc21)C(=O)c1cn(CC(=O)N2CCCC2)c2ccccc12,-4.18%
7,COc1ccccc1C1SC(NC(C)=O)=NN1C(C)=O (stereo not shown),-0.053%
8,COc1ccccc1OCCCc1c(C)n[nH]c1C,1.9%
9,COC(=O)C1=C(C)N(C)C(=O)/C1=C\c1cc(C)n(-c2ccc(Cl)cc2)c1C,3.47%
10,O=C(CN1CCN(Cc2ccccc2Cl)C1=O)NCCCN1CCOCC1,2.02%
11,CCOC(=O)c1[nH]c(C)c(C(=O)N(CC)Cc2ccccc2)c1C,1.72%
12,CC1CC(C)CN(C(=O)Cn2ncc3c(Cl)cccc32)C1 (stereo not shown),0.596%
13,CCn1ncc(/C=C2\CCCC3=C2OC(N)=C(C#N)C3c2cnn(CC)c2C)c1C (stereo not shown),-1.98%
14,O=C(COc1ccc(Cl)cc1Cl)Nc1ccc(S(=O)(=O)N2CCCCC2)cc1,2.55%
15,O=C(Nc1cccc2cccnc12)c1ccco1,1.65%
16,Cc1cc(C)c2c(n1)SCC(=O)N2CC(=O)N1CCN(C)CC1,-4.15%
17,COc1ccc(Br)cc1CNC(=O)c1cc2oc3ccccc3c2n1C,0.0882%
18,Cc1cc(OCC(=O)Nc2sc(C)c(C)c2C(N)=O)ccc1Br,0.163%
19,COc1ccc(NCc2ccc(N)cc2)cc1,4.16%
20,CC(=O)C(C#N)NC(=O)[C@H](CC(C)C)NC(=O)OCc1ccccc1 (stereo partly shown),0.173%
21,C/C(=C\C(=O)NC(C)Cc1ccccc1)c1ccccc1 (stereo not shown),-3.86%
22,Cc1ccc(S(=O)(=O)N(CC(O)CN2CCOCC2)c2cccc(C)c2)cc1 (stereo not shown),-2.05%
23,COc1cccc(CNCc2c(C(=O)O)n(Cc3ccccc3F)c3ccccc23)c1OC,0.896%
24,Cc1ccc2c(=O)c(C(=O)c3ccccc3)cn(CC(=O)NCc3ccccc3Cl)c2n1,0.451%
25,O=C(O)CCC(=O)Nc1ccccc1C#Cc1ccc(Br)cc1,0.829%
26,COc1ccc(Cl)cc1NC(=O)c1ccoc1C,3.53%

row,SMILES,% Inhibition @ 10 uM
1,CCOC(=O)N1CCN(S(=O)(=O)c2ccc3oc(=O)c4ncn(C)c4c3c2)CC1,-8.5%
2,O=C1/C(=C/c2ccccn2)CC(c2ccccc2)C/C1=C\c1ccccn1 (stereo not shown),4.06%
3,Cc1cc(Cl)ccc1NC(=O)CN(c1ccc2c(c1)OCCO2)S(=O)(=O)c1ccccc1,-2.65%
4,O=C(NCCCCc1ccccc1)c1ccc(-c2ccccc2)cc1,-6.78%
5,Cn1c(=O)c2c(ncn2CCCNC2=NCCC2)n(C)c1=O,-0.994%
6,CCn1c(SC)nc2c(c1=O)C1(CCCCC1)Cc1ccccc1-2,1%
7,COc1cc(CN2CCCN(C)CC2)cc(OC)c1O,-0.828%
8,COc1ccccc1-n1nc(C)cc1NC(=O)NC(=O)c1ccc(C(F)(F)F)cc1,-2.5%
9,CC(Oc1ccccc1Cl)C(=O)N1CCOCC1 (stereo not shown),0.83%
10,CC(=O)Nc1ccc(NC(=O)c2scc3c2OCCO3)cc1,4.11%
11,Cc1ccc2[nH]c3c(c2c1)CCCC3NCCCO (stereo not shown),1.48%
12,CC1CC(C)(C)OC(C(C)(C)CN(C)C)O1 (stereo not shown),6.24%
13,O=C1N/C(=C\c2ccc(O)cc2)C(=O)c2ccccc21,9.53%
14,COCCCNC(=O)C1CCN(c2nc3c(C)cc(C)cc3s2)CC1,0.137%
15,COc1ccc(Br)cc1/C=c1\sc2nc(-c3cccnc3)nn2c1=O,0.222%
16,COc1ccc2[nH]c3c(=O)n(CCC(=O)N4CCN(c5ccccn5)CC4)c(=S)[nH]c3c2c1,-7.65%
17,CCC1CCCCN1S(=O)(=O)c1ccc2nc(O)ccc2c1 (stereo not shown),-0.901%
18,OC1(c2ccccc2)CC(c2ccccc2)Oc2ccccc21 (stereo not shown),2.01%
19,Cc1[nH]c2ccccc2c1CN1CCN(c2ccccc2)CC1,-4.35%
20,N#CCNC(=O)C(CCC1CCCCC1)NC(=O)c1ccccc1 (stereo not shown),5.75%
21,NC(=O)c1c(NC(=O)COc2ccc(Cl)cc2)sc2c1CCCCCC2,-4.33%
22,CN(C)CCNS(=O)(=O)c1ccc(-c2cc(C(F)(F)F)no2)s1,4.23%
23,Cc1cccc(C(=O)Nc2ccccc2C#N)c1,-1.89%
24,O=C(NCCc1ccc(Cl)cc1)C1CCN(c2nnc(-n3cccc3)s2)CC1,-4.04%
25,C=CCOc1ccc(C(=O)C2=C(O)C(=O)N(c3ccccn3)C2c2ccc(F)cc2)cc1 (stereo not shown),2.86%
